Experimental data published in the RNAGym collection of RNA variant scans (doi:10.7554/elife.90254).
Read counts are not given, so values of variants with three or more changes are uncertain.

B1: LINE1-mini (parent)
chain: GGCAGAGCUCAACACAGCGUGGCAAAGUGGCUGUGGCUAGACUGCC

Variants of: B1
Assay: self-cleavage, relative activity (ratio to wild type); higher = more cleavage; in vitro, sequencing; the parent is a self-cleaving ribozyme

Variant	self-cleavage
G5A C18G G19C G27A	0.29
G5A C18G U32A G36C U38A	0.02
G5A C18U C23A	0.71
G5A C18U G21C G36C	0.12
G5A C18U G22A C23A G27A	2.03
G5A C18U G30U	0.39
G5A C18U U20A A26C U32G	0.02
G5A C23A G36U	0.03
G5A C23A U32C G35A C45A	0.03
G5A C23A U43A	0.01
G5A C23G G30A	0.13
G5A C37G G40A U43C	0.04
G5A C37G G40A U43G	0.02
G5A C37G G40C	0.02
G5A C42A C46A	0.02
G5A G7A A11C C46U	0.03
G5A G7A C15U C42A	0.34
G5A G7A C42A	0.1
G5A G7A C46A	0.38
G5A G7C A11C U20C C46A	0.06
G5A G7C A12G A16U C23G G27C U32A	0.01

Variant	self-cleavage
G5A G7C A25U C45A	0.03
G5A G7C A26U G27A C46G	0.07
G5A G7C C13G C18A	0.69
G5A G7C C18G A26G	0.04
G5A G7C U34A	0.05
G5A G7U A11C G33C	0.01
G5A G7U A11G	0.03
G5A G7U A25G	0.37
G5A G7U C23U C42U	0.06
G5A G7U G17U G30A	0.1
G5A G7U G29C A39U	0.07
G5A G7U G40U	0.48
G5A G17A G21U C23A	0.05
G5A G17A G30U C46U	0.06
G5A G17A U28G	0.04
G5A G17C G21A C31A	0.13
G5A G17U G21U G40U	0.12
G5A G19A A25G C37U	0.02
G5A G19A G30U G33U U43C	0.09
G5A G19A G35C U43A	0.05
G5A G19A U34C	0.07

Variant	self-cleavage
G5A G19C A25G U38C	0.02
G5A G19U G22C A25C C45G	0.05
G5A G19U G30A U38A G40U	0.02
G5A G19U G35U	0.22
G5A G19U U20C G29U G44A	0.07
G5A G19U U32C	0.05
G5A G21A A39G	0.09
G5A G21A G27A G30C	0.15
G5A G21C A26U C31G G33C	0.03
G5A G21C G22U G27U A39U	0.03
G5A G21C G33A C45G C46U	0.02
G5A G21U A25U	0.12
G5A G21U C37U G44U	0.04
G5A G22A C42A	0.28
G5A G22A G27A G30C A41U	0.74
G5A G22C C42U	0.58
G5A G22U C31A U43A C46U	0.02
G5A G29A C37A C46A	0.13
G5A G29C C31A U38A A39U U43A C46G	0.02
G5A G29C G35C A41C	0.05
G5A G29U C45U	0.18

Variant	self-cleavage
G5A G29U G40U	0.13
G5A G30A C46U	0.15
G5A G30U G40C	0.04
G5A G30U U32A G33U	0.04
G5A G33U U34G A39G C46U	0.03
G5A G36C A41U C46U	0.07
G5A G36C C45U	0.02
G5A G40C A41G	0.04
G5A U9A A11C A14G C46U	0.02
G5A U9A A12G G19A A39U	0.04
G5A U9A C10A A14U G17A G30U	0.04
G5A U9A C13A	0.65
G5A U9A G22A A25G	0.14
G5A U9A G22A G27C	0.11
G5A U9C G19C A41C U43G	0
G5A U9C G21U A39G	0.04
G5A U9G A11U C18U G19A	0.01
G5A U9G A14G G30A G44A	0.02
G5A U9G C10U G19A U20C	0.03
G5A U9G G27A	0.24
G5A U9G G29C U43A	0.17
